Source: the supplement of paper PMC9174493
This is one part of the list. Single values of this set are uncertain. Values with irradiation are relative to irradiated vehicle.

test system: A549-Dual; test: NF-kB reporter (SEAP) activity, viability-corrected, relative to vehicle (fold change vs vehicle); higher = more activation of STING-IRF / NF-kB immune response reporter; settings: 10 µM; irradiation: 8 Gy/4 fr
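Also: viability correction based on the alamar blue assay, with concentrations leaving 10% survival or less dropped.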

| SMILES | NF-kB reporter |
| --- | --- |
| O=C(CO)C(O)C(O)C(O)CO (centres undefined) [Fructose] | 0.846 |
| NCC1OC(OC2C(N)CC(N)C(O)C2OC2OC(CO)C(O)C2O)C(N)C(O)C1O.O=S(=O)(O)O (centres undefined) [Ribostamycin Sulfate] | 0.794 |
| Cl.O=C(O)c1cn(-c2ccc(F)cc2)c2cc(N3CCNCC3)c(F)cc2c1=O [Sarafloxacin HCl] | 0.95 |
| CC(O)C1C(=O)N2C(C(=O)[O-])=C(SC3Cn4cnc[n+]4C3)C(C)C12 (centres undefined) [Biapenem] | 0.789 |
| OC(Cn1cncn1)(Cn1cncn1)c1ccc(F)cc1F [Fluconazole] | 0.744 |
| CCCC1CC(C(=O)NC(C(C)Cl)C2OC(SC)C(O)C(O)C2O)N(C)C1 (centres undefined) [Clindamycin] | 0.756 |
| CC(C)(O/N=C(/C(=O)NC1C(=O)N2C(C(=O)[O-])=C(C[n+]3ccccc3)CSC12)c1csc(N)n1)C(=O)O.O.O.O.O.O (centres undefined) [Ceftazidime Pentahydrate] | 1.15 |
| Cc1ccc(=O)n(-c2ccccc2)c1 [Pirfenidone] | 0.805 |
| CN(C)CCCN1c2ccccc2Sc2ccccc21.Cl [Promazine hydrochloride] | 0.802 |
| Nc1cc[nH]c(=O)n1 [Cytosine] | 0.845 |
| COC(=O)C1CC2=CC(=O)CCC2(C)C23OC2CC2(C)C(CCC24CCC(=O)O4)C13 (centres undefined) [Eplerenone] | 0.741 |
| Cc1ccc2c(Cl)cc(Cl)c(O)c2n1 [Chlorquinaldol] | 0.295 |
| NC1CONC1=O [L-Cycloserine] | 0.927 |
| CC12CC3CC(C)(C1)CC(N)(C3)C2.Cl [Memantine HCl] | 0.638 |
| O=c1n(CCCN2CCN(c3cccc(Cl)c3)CC2)nc2ccccn12 [Trazodone] | 0.922 |
| CCCc1ncc(C[n+]2ccccc2C)c(N)n1.Cl.[Cl-] [Amprolium HCl] | 0.867 |
| O=CC(O)C(O)C(OC1OC(CO)C(O)C(O)C1O)C(O)CO (centres undefined) [Maltose] | 1.2 |

| SMILES | NF-kB reporter |
| --- | --- |
| C=C1C2CCC(C2)C1(C)C (centres undefined) [Camphene] | 0.864 |
| Cl.Cl.N=C(NCCCCCCNC(=N)NC(=N)Nc1ccc(Cl)cc1)NC(=N)Nc1ccc(Cl)cc1 [Chlorhexidine?2HCl] | 2.48 |
| COc1cc(N)c(Cl)cc1C(=O)NC1CCN(CCCOc2ccc(F)cc2)CC1OC (centres undefined) [Cisapride] | 0.945 |
| CCN(CC)CC(=O)Nc1c(C)cccc1C [Lidocaine] | 0.646 |
| CC1OC(OC2C(CO)OC(OCC3OC(OC(=O)C45CCC(C)(C)CC4C4=CCC6C7(C)CCC(OC8OCC(O)C(O)C8OC8OC(C)C(O)C(O)C8O)C(C)(CO)C7CCC6(C)C4(C)CC5)C(O)C(O)C3O)C(O)C2O)C(O)C(O)C1O (centres undefined) [Hederacoside C] | 0.807 |
| COC(=O)Nc1nc2cc(C(=O)c3ccccc3)ccc2[nH]1 [Mebendazole] | 0.728 |
| CN1CCC(=C2c3ccccc3CC(=O)c3sccc32)CC1.O=C(O)/C=C/C(=O)O [Ketotifen Fumarate] | 0.648 |
| CCOC(=O)C(CCc1ccccc1)NC(C)C(=O)N1C(C(=O)O)CC2CCCC21 (centres undefined) [Ramipril] | 0.884 |
| CS(=O)(=O)Nc1ccc([N+](=O)[O-])cc1Oc1ccccc1 [Nimesulide] | 0.604 |
| CCC1C(O)C2C3CCC(C(C)CCC(=O)O)C3(C)CCC2C2(C)CCC(O)CC12 (centres undefined) [Obeticholic Acid] | 0.666 |
| OCCc1ccccc1 [Phenethyl alcohol] | 0.804 |
| CCCCc1nc(Cl)c(CO)n1Cc1ccc(-c2ccccc2-c2nnn[nH]2)cc1.[KH] [Losartan Potassium (DuP 753)] | 0.641 |
| CCC(=O)OC1(C(=O)CCl)C(C)CC2C3CCC4=CC(=O)C=CC4(C)C3(F)C(O)CC21C (centres undefined) [Clobetasol propionate] | 0.724 |
| Clc1ccc(C(Cn2ccnc2)OCc2ccsc2Cl)c(Cl)c1 (centres undefined) [Tioconazole] | 0.32 |
| CCN1CC(CCN2CCOCC2)C(c2ccccc2)(c2ccccc2)C1=O.Cl.O (centres undefined) [Doxapram HCl] | 0.642 |
| C1CNCCN1.CC12CCC3c4ccc(OS(=O)(=O)O)cc4CCC3C1CCC2=O (centres undefined) [Estropipate] | 0.719 |
| O=c1c(O)c(-c2ccc(O)cc2O)oc2cc(O)cc(O)c12 [Morin] | 0.423 |
